Reference: PubChem BioAssay AID588855 (National Center for Advancing Translational Sciences (NCATS), 2011)
About 5,000 (1.2%) of roughly 410,000 compounds were called active. Inconclusive results, whose numbers are uncertain, are shown with a selection of clear calls. Calls follow the shape of the dose curve; as a rule, active = well fitted inhibition curve with a large enough effect; inconclusive = small, poorly fitted or top-dose-only effect; inactive = no such curve, though single readings can be large or run the other way. A potency beside an inconclusive call is a rough fit, not a confirmed value.

test: qHTS for Inhibitors of TGF-b; settings: HepG2 CAGA-GFP TGF-b/SMAD3 reporter, GFP fluorescence, 18 h, TGF-beta stimulated, 500 pg/mL final; series mostly up to 46.1 µM; activity, negative = inhibition: at the top concentration; also: nearly all actives have a fitted effect of over 65% in size
Procedure, shortened: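 HEPG2 CAGA-GFP cells (1000/well, DMEM with 1% FBS) were pre-incubated 2 h at 37 degrees C, given compound by pin tool, then stimulated with TGF-beta at 500 pg/mL final for 18 h before per-cell GFP fluorescence imaging.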
% is scaled to controls: 0 for no effect and ±100 for the full control effect; potency is read from the fitted curve at half-maximal effect; tags tell the direction and shape of the fitted curve.

SMILES | Potency | activity, negative = inhibition
O=C(/C=C/c1cn(-c2ccccc2)nc1-c1ccc2c(c1)OCCO2)NCCCN1CCOCC1 | inconclusive: 15.8 µM [inhibitor, single point] | –
CN(C1=NS(=O)(=O)c2ccccc21)c1ccc(OC(=O)c2ccccc2F)cc1 | – | inactive: -5.1%
CC(=O)Nc1ccc(S(=O)(=O)NC2(c3ccccc3)C(=O)N(C)C(=O)N(C)C2=O)cc1 | inconclusive: 20 µM [inhibitor, single point] | –
COC(=O)Cc1c(C)c2ccc(OCC(=O)N(C)C)cc2oc1=O | – | inactive: -3.79%
O=C(OC1CCOC1=O)c1ccccc1C(=O)c1ccc(Cl)c([N+](=O)[O-])c1 (stereo unspecified) | inconclusive: 35.5 µM [inhibitor, single point] | –
Cc1cc(N2CCc3ccccc32)n2ncnc2n1 | inconclusive: 0.794 µM [inhibitor, full curve, poor fit] | –
Cc1ccc(NC(=O)CN2C(=O)COc3ccc(S(=O)(=O)Nc4ccccc4)cc32)c(C)c1 | inconclusive: 10 µM [inhibitor, partial curve, poor fit] | –
COc1ccc(CNC(=O)c2ccc3nc(C(C)C)oc3c2)cc1OC | inconclusive: 7.08 µM [inhibitor, full curve] | –
C=CC(=O)N1c2ccccc2Sc2ccc(NC(=O)OCC)cc21 | active: 15.8 µM | –
COc1ccc(/C=C/C(=O)Nc2ccc(C(C)=O)cc2)cc1S(=O)(=O)N1CCOCC1 | – | inactive: -5.25%
CN(NC(=O)c1ccc(Cl)cc1)c1nc(-c2ccccc2)nnc1C(F)(F)F | inconclusive: 14.1 µM [inhibitor, single point] | –
O=C(C=Cc1ccc2c(c1)OCO2)C1CC1 | – | inactive: -3.49%
Oc1ccc(C2Nc3cccc4cccc(c34)N2)c(O)c1 | inconclusive: 11.2 µM [inhibitor, single point] | –
O=C(CSc1nnc(Cc2ccccc2)n1Cc1ccco1)NC12CC3CC(CC(C3)C1)C2 | inconclusive: 35.5 µM [inhibitor, single point] | –
O=C(CCCC(=O)N/N=C\c1ccccn1)N/N=C\c1ccccn1 | – | inactive: -14.6%
COc1ccc(NC(=O)Cn2nnc3sc4c(c3c2=O)CCCC4)cc1 | – | inactive: -5.59%
Cc1ccc(C(=O)N/N=C/c2cc(Br)ccc2O)cn1 | inconclusive: 4.47 µM [inhibitor, full curve, poor fit] | –
CC1(C)CC(=O)C2=C(C1)Oc1nc3ccccc3cc1C2C(C#N)C#N (stereo unspecified) | active: 11.2 µM | –
CCCCn1cnc2cc(C)c(C)cc21 | – | inactive: 4.45%
Clc1ccc(-c2noc(CSc3nnc(Cc4cccs4)n3-c3ccccc3)n2)cc1 | inconclusive: 22.4 µM [inhibitor, single point] | –
Cc1ccc(NC(=O)CSc2nnc(-c3ccc(Br)cc3)o2)c(C)c1 | inconclusive: 0.562 µM [inhibitor, partial curve, poor fit] | –
CCC(CC)COC(=O)C1=C(C)NC(=O)NC1c1ccc(N(C)C)cc1 (stereo unspecified) | inconclusive: 35.5 µM [inhibitor, single point] | –

SMILES | Potency | activity, negative = inhibition
COc1ccc(-c2ccc([C@H]3[C@@H]4C=CCC[C@@]4(C)C(=O)N3Cc3ccccc3)c(F)c2)cc1OC | inconclusive: 22.4 µM [inhibitor, single point] | –
COc1cc(C(=O)N(C)CC2CCN(CCc3cccc(C(F)(F)F)c3)CC2)ccc1C | inconclusive: 10 µM [inhibitor, partial curve, poor fit] | –
COc1ccc(NC(=O)C(C)Sc2ccccc2)cc1 (stereo unspecified) | inconclusive: 3.16 µM [inhibitor, single point] | –
COCc1cc(OC)nc(-c2csc(C)n2)n1 | – | inactive: -15.5%
O=C(CN1C2=NCCCN2c2ccccc21)c1ccc([N+](=O)[O-])cc1 | inconclusive: 25.1 µM [inhibitor, single point] | –
Cn1ccc2c(-c3ccc(CO)cc3)cc3c(c21)C1CCC3O1 (stereo unspecified) | inconclusive: 35.5 µM [inhibitor, single point] | –
O=[N+]([O-])c1cccc2c(N3CCCC3)ccnc12 | active: 7.08 µM | –
CCN1C(=O)[C@@H]2[C@H](C1=O)[C@@H]1C(=O)Nc3ccccc3C(=O)N1[C@@H]2c1cccc(Cl)c1 | – | inactive: -0.758%
Cc1ccccc1-n1nc2c(c1NC(=O)c1cc3ccccc3o1)CS(=O)(=O)C2 | – | inactive: 0.54%
Cc1ccc(NC(=O)Nc2ccc3c(c2)N(C)C(=O)CS3)cc1C | inconclusive: 14.1 µM [inhibitor, single point] | –
Cc1ccc(C)c(OCc2cc(C(=O)NC(c3ccccn3)C(F)(F)F)no2)c1 (stereo unspecified) | – | inactive: 0%
Cc1ccc2c(c1)CCCN2C(=O)c1cccs1 | inconclusive: 0.112 µM [inhibitor, full curve, poor fit] | –
Cc1ccc(N(Cc2ccccc2)C(=O)c2cccc(S(=O)(=O)N3CC(C)OC(C)C3)c2)cc1 (stereo unspecified) | inconclusive: 1 µM [inhibitor, full curve, poor fit] | –
COc1cc(C(=S)N2CCC(C)CC2)ccc1O | inconclusive: 35.5 µM [inhibitor, single point] | –
O=C(Nc1ccc(N2CCOCC2)c2nonc12)C1CCCC1 | – | inactive: 2.18%
Cc1nn(C)c(C)c1N1C(=O)c2cccc3c(Br)ccc(c23)C1=O | inconclusive: 10 µM [inhibitor, partial curve, poor fit] | –
CN(C(=O)c1ccc(NC(=O)Cc2cccc([N+](=O)[O-])c2)cc1)C1CCCC1 | inconclusive: 15.8 µM [inhibitor, single point] | –
CCC(=O)N1CC(C)C(=O)Nc2ccccc21 (stereo unspecified) | inconclusive: 3.55 µM [inhibitor, partial curve, poor fit] | –
COc1ccc(C(=O)Nc2cc(S(=O)(=O)c3ccc(Cl)cc3)c(O)c(C)c2C)cc1 | inconclusive: 12.6 µM [inhibitor, single point] | –
O=C(Nc1ccc(F)cc1F)N1CCCCC1c1cccnc1 (stereo unspecified) | inconclusive: 20 µM [inhibitor, partial curve, poor fit] | –
COc1cccc(NS(=O)(=O)c2ccc3[nH]cc(C(=O)NCCC(C)C)c(=O)c3c2)c1 | inconclusive: 35.5 µM [inhibitor, single point] | –
O=C(Nc1ccc(Br)cc1)C(Cc1ccccc1)NS(=O)(=O)c1cccc2nsnc12 (stereo unspecified) | inconclusive: 7.94 µM [inhibitor, partial curve] | –

SMILES | Potency | activity, negative = inhibition
CCNC(=O)CSc1nnc(-c2cccc(S(=O)(=O)N(CC)CC)c2)n1CCc1ccccc1 | inconclusive: 35.5 µM [inhibitor, single point] | –
COc1ccccc1NC(=O)Cn1nc(-c2ccc(C)cc2)c2c(c1=O)CCCC2 | – | inactive: -0.845%
Cc1ccc(CSCC(=O)N(CCC(C)C)c2c(N)n(Cc3ccccc3)c(=O)[nH]c2=O)cc1 | inconclusive: 15.8 µM [inhibitor, single point] | –
C#CCOCCOCCOCCNc1nc(N2CCN(C(=O)CCCCCCCCCCNC(=O)Cn3cc(C[C@@H](C)O)nn3)CC2)nc(N2CCN(C(=O)CCCCCCCCCCNC(=O)[C@H](CCCCN)n3cc(C[C@@H](C)CC)nn3)CC2)n1 | inconclusive: 15.8 µM [inhibitor, partial curve, poor fit] | –
COCCN(C(=O)Cc1ccc(OC)c(OC)c1)c1nc(-c2cc(OC)ccc2OC)cs1 | – | inactive: -7.19%
COc1ccc(/C=N/Nc2cc(C)nc3c(C)cccc23)cc1 | inconclusive: 25.1 µM [inhibitor, single point] | –
CC(SC#N)C(=O)C12CC3CC(CC(C3)C1)C2 (stereo unspecified) | inconclusive: 15.8 µM [inhibitor, partial curve, poor fit] | –
Cc1ccc(C2C(C#N)=C(N)N(c3ncn[nH]3)C3=C2C(=O)CC(C)(C)C3)cc1 (stereo unspecified) | – | inactive: 0%
CCN1C(=O)C(CC(=O)Nc2ccc(OC)cc2)N(CCc2ccc(OC)cc2)C1=S (stereo unspecified) | inconclusive: 22.4 µM [inhibitor, single point] | –
O=C(CNC(=O)C(c1ccccc1)c1ccccc1)N/N=C\c1ccc2c(c1)OCO2 | inconclusive: 22.4 µM [inhibitor, single point] | –
CC(/C=C1\SC(=S)N(CCC(=O)Nc2ccccc2O)C1=O)=C\c1ccccc1 | – | inactive: -20.9%
Cn1c(O)c(N=NC(=O)c2cc(-c3cccs3)nc3ccccc23)c2ccccc21 | inconclusive: 35.5 µM [inhibitor, single point] | –
Nc1c(N2CCN(c3ccccc3)CC2)c2ccccc2oc1=O | – | inactive: 5.95%
CC(C)(C)OC(=O)N1CCC(c2c(C(=O)NCc3ccco3)cnn2-c2ccccc2Cl)CC1 | inconclusive: 35.5 µM [inhibitor, single point] | –
Cc1nn(CCCC(=O)NCc2ccccc2)c(=O)c2cc3sccc3n12 | inconclusive: 0.199 µM [inhibitor, full curve, poor fit] | –
Cc1[nH]c2ccccc2c1/C=N/Nc1nc2ccccc2[nH]1 | inconclusive: 12.6 µM [inhibitor, partial curve] | –
COc1ccccc1N1C(=O)CC1(C#N)c1ccc(OCc2ccccc2)cc1 (stereo unspecified) | inconclusive: 35.5 µM [inhibitor, single point] | –
CCN(CC)S(=O)(=O)c1cccc(NC(=O)CNC2CCCCCC2)c1 | inconclusive: 17.8 µM [inhibitor, single point] | –
Fc1ccc(CSc2nc(NCc3ccccc3)c3ccccc3n2)cc1 | inconclusive: 3.16 µM [inhibitor, partial curve, poor fit] | –
CC(=NO)c1cc(Br)c2cccc3c2c1CC3 | inconclusive: 15.8 µM [inhibitor, single point] | –
Cc1ccccc1OC1C(=O)N(CC2CCCO2)C1c1ccc2c(c1)OCO2 (stereo unspecified) | – | inactive: -3.59%
Cc1ccc(NC(=O)Cc2ccc(Cl)cc2)nc1 | – | inactive: 14.3%
